In ChEMBL document CHEMBL4888484, “Replenishing the malaria drug discovery pipeline: Screening and hit evaluation of the MMV Hit Generation Library 1 (HGL1) against asexual blood stage Plasmodium falciparum ,using a nano luciferase reporter read-out” (2022):
In all, about 150,000 compounds went through this assay and about 540 (0.36%) showed an effect of 50% or more. The list shows a part of the results.

These compounds were tested on Plasmodium falciparum (assay: Primary screen in NF54 nanoGlo assay, in single point, at 2uM, 72h; a lower Z score goes with more inhibition). Details: timepoint 72 hour.
Type: functional, Erythrocyte
`Cc1cccc(-c2noc([C@@H]3CCCN3S(=O)(=O)c3ccc(C)c(C)c3)n2)c1` was tested, and the “% Inhibition” value was -3% and the Z score was 0.5. `O=C(Nc1cc2c(nn1)CCC2)N1CCC[C@H](CCO)CC1` was tested, and the “% Inhibition” value was -19% and the Z score was 3.6. In the case of `O=C(Cn1cnc(C2CC2)n1)NCC1CC1`, the “% Inhibition” value is reported as 0% and the Z score is reported as -0.02. `O=C(Nc1ccccc1F)c1nc(-c2cn(-c3ccc(F)cc3)nn2)no1` was tested, and the “% Inhibition” value was -10% and the Z score was 2.02. In the case of `CN(C)C(=O)c1cnc(N(C)C)nc1[C@H]1CCN(C(=O)C2CCC2)C1`, the “% Inhibition” value is reported as -20% and the Z score is reported as 2.39. In the case of `C[C@H]1CN(c2ccncc2F)C[C@]1(O)C1CC1`, the “% Inhibition” value is reported as -13% and the Z score is reported as 2.56. For `CC(C)(O)Cn1nc(COc2ccc(F)cc2)nc1-c1cc(C#N)c[nH]1`, the “% Inhibition” value was 1% and the Z score was -0.19. For `Cc1cc(S(=O)(=O)N[C@@]2(CC(=O)O)CCCOC2)c(C)s1`, the “% Inhibition” value was -3% and the Z score was 0.58. `Cc1cc(C)cc(CN2CCN(Cc3cccnc3N)CC2=O)c1` was tested, and the “% Inhibition” value was -4% and the Z score was 0.6. In the case of `COC(=O)c1c(NC(=O)C2CCCO2)c2cc(NC(C)CCn3cccn3)cnc2n1CCc1ccccc1` (stereo not drawn), the “% Inhibition” value is reported as 4% and the Z score is reported as -0.56. `CCc1ccc(S(=O)(=O)N2CCC3(CC2)N=C(c2ccccc2)C(=O)N3)cc1` was tested, and the “% Inhibition” value was -3% and the Z score was 0.51. `Cc1cc2ncc(C(C)NCC(C)N3CCOCC3C)c(C)n2n1` (stereo not drawn) was tested, and the “% Inhibition” value was -4% and the Z score was 0.44. In the case of `CCOc1cc(CNCCNS(C)(=O)=O)c(Cl)cc1OC(C)C`, the “% Inhibition” value is reported as 9% and the Z score is reported as -1.33. In the case of `CCc1nnc(NS(=O)(=O)c2ccc(OC(C)C)cc2)o1`, the “% Inhibition” value is reported as -9% and the Z score is reported as 1.26. For `O=C1[C@@H]2CCCN2C(=O)CN1CCc1ccccc1`, the “% Inhibition” value was 0% and the Z score was 0. `O=C(Cc1ccccc1O)N[C@H]1CCCN(C2CCCC2)C1` was tested, and the “% Inhibition” value was 0% and the Z score was -0.04. For `O=C(NCCOC(=O)c1ccccc1F)c1ccccc1`, the “% Inhibition” value was -12% and the Z score was 1.69. `O=C(NCc1cccc(Cl)c1O)N[C@H](C1CCC1)C1CC1` was tested, and the “% Inhibition” value was 6% and the Z score was -1.2. With `CNc1snc(C)c1C(=O)N1CCC(OCC(C)C)CC1` the “% Inhibition” value was -3% and the Z score was 0.51. `O=C(NCCCN1CCOCC1)c1ccc2nc(-c3ccc(F)cc3)c(-c3ccc(F)cc3)nc2c1` was tested, and the “% Inhibition” value was -14% and the Z score was 1.63. `O=C1CCCN1Cc1nc(-c2ccc(F)cc2)no1` was tested, and the “% Inhibition” value was -3% and the Z score was 0.4. For `N#Cc1cnc(N2CCC[C@H](c3nncn3C3CC3)C2)c(Cl)c1`, the “% Inhibition” value was -15% and the Z score was 1.48. For `O=C(NCCc1nc(-c2ccsc2)no1)OCC(F)(F)F`, the “% Inhibition” value was 4% and the Z score was -0.59. For `Cc1noc(C)c1S(=O)(=O)N1CCC[C@H]1c1nnc(C(C)C)[nH]1`, the “% Inhibition” value was -11% and the Z score was 1.38. In the case of `C[C@H]1c2cc(Cl)cc(Cl)c2CCN1c1c(C#N)c(=O)n(C)c(=O)n1C`, the “% Inhibition” value is reported as -3% and the Z score is reported as 0.5. `COc1ccccc1NC(=O)Nc1ccccc1N1CCCC1` was tested, and the “% Inhibition” value was 0% and the Z score was -0.05. With `COCCCN(CC(=O)N(CCc1c[nH]c2ccccc12)Cc1ccc(OC)c(OC)c1)C(=O)C(c1ccccc1)c1ccccc1` the “% Inhibition” value was 8% and the Z score was -0.96. `CCNC(=O)[C@@H]1C[C@@H](n2cc(-c3ccc(F)cc3)nn2)CN1` was tested, and the “% Inhibition” value was -8% and the Z score was 1.36. For `Brc1ccc(N2CCC(CN3CCOCC3)CC2)nc1`, the “% Inhibition” value was 5% and the Z score was -0.73. `C[C@H]1CCCCN1C(=O)c1cnn2ccccc12` was tested, and the “% Inhibition” value was -3% and the Z score was 0.53. With `Cc1nc(NC(=O)N2CCOCC2CC(O)c2cccs2)sc1C` (stereo not drawn) the “% Inhibition” value was 31% and the Z score was -0.39. With `COc1ccc(-c2noc(Cn3c(=O)c4ccccc4n(CC(=O)Nc4cc(C)ccc4C)c3=O)n2)cc1` the “% Inhibition” value was 30% and the Z score was 0.01. In the case of `O=C(NC(c1ccccc1)C1CC1)C1CCCN(C(=O)c2cccs2)C1` (stereo not drawn), the “% Inhibition” value is reported as 4% and the Z score is reported as -0.42. With `C[C@H](NC(=O)N1CCc2ccc(F)cc2C1)c1noc(Cc2ccccc2)n1` the “% Inhibition” value was -11% and the Z score was 1.48. For `CCCCN(CCc1nc(-c2ccc(C)cc2)no1)C(=O)c1ccco1`, the “% Inhibition” value was -15% and the Z score was 2.22. For `O=C(CN1CCCNC1=O)N[C@@H](Cc1ccccc1)c1cccs1`, the “% Inhibition” value was 0% and the Z score was -0.01. For `c1ccc2cc(-c3noc([C@@H]4Cc5[nH]cnc5CN4CC4CCCCC4)n3)ccc2c1`, the “% Inhibition” value was -1% and the Z score was 0.12. For `CC1(C)C[C@@](C)(c2ccccc2)c2ccccc2N1C(=O)COc1ccc(Cl)cc1Cl`, the “% Inhibition” value was 11% and the Z score was -1.33. With `COc1ccc(F)cc1CC(=O)N1C2CCC1CC(=O)NC2` (stereo not drawn) the “% Inhibition” value was -8% and the Z score was 1.44. `O=C(Nc1nnc(-c2cccs2)o1)c1cnccn1` was tested, and the “% Inhibition” value was -2% and the Z score was 0.21. In the case of `COc1ccc(CNC(=O)c2ccc(CN3C(=O)CCn4nccc43)cc2)cc1OC`, the “% Inhibition” value is reported as 28% and the Z score is reported as -3.31. For `Cc1nnc(NCc2cccs2)c(C#N)c1C`, the “% Inhibition” value was 9% and the Z score was -0.89. In the case of `Cc1noc(C)c1CCCNC1CC2CCC1C2` (stereo not drawn), the “% Inhibition” value is reported as 4% and the Z score is reported as -0.57. For `Cc1ccc([C@@H](C)CCN(C)CC2(C)COC2)o1`, the “% Inhibition” value was -4% and the Z score was 0.68. For `COc1ccc(C(=O)NC[C@@]23CCC=C2N(CC2CC2)C(=O)CC3)cc1`, the “% Inhibition” value was -14% and the Z score was 2.05. With `Cc1ccc(C(=O)Nc2ccsc2-c2nnc(C3CC3)o2)c(C)c1` the “% Inhibition” value was -5% and the Z score was 0.49. In the case of `COc1nc(/C=C/C2CCCCC2)ncc1F`, the “% Inhibition” value is reported as -10% and the Z score is reported as 1.84. For `COc1ccccc1CN(C(=O)c1ccc(C)cc1)c1ccc(CC(=O)NCCN2CCCCC2)cc1`, the “% Inhibition” value was 46% and the Z score was -7.09. With `COC(=O)c1ccc(CN2CCC3(CCCN3C)CC2)cc1` the “% Inhibition” value was -2% and the Z score was 0.17. For `CCc1nn(C)c(Cl)c1CN1CCN(C(=O)c2cccs2)CC1`, the “% Inhibition” value was 5% and the Z score was -0.84. In the case of `Cc1nc2sc([C@H](c3ccc(C)o3)N3CCCCCC3)c(O)n2n1`, the “% Inhibition” value is reported as 10% and the Z score is reported as -1.25. For `CCOC(=O)N1CCCC[C@H](c2ccccc2)C1`, the “% Inhibition” value was -13% and the Z score was 2.06. For `O=S(=O)(NCc1cccc(C(F)(F)F)c1)NCC(F)(F)F`, the “% Inhibition” value was -2% and the Z score was 0.33. In the case of `O=C(CCC(F)(F)F)N[C@H]1CN(C2CCCC2)C[C@@H]1C1CC1`, the “% Inhibition” value is reported as -1% and the Z score is reported as 0.13.
